“And” between values parts separate entries of the source, which are not always exact repeats. Equal values may be shown once. The whole screen tested about 74,000 compounds, of which about 1,100 (1.5%) were called active. The inconclusive results got no clear call from the source; some entries with a clear call stand among them for comparison. Calls follow the shape of the dose curve; as a rule, active = well fitted inhibition curve with a large enough effect; inconclusive = small, poorly fitted or top-dose-only effect; inactive = no such curve, though single readings can be large or run the other way. Where the call is inconclusive, the potency comes from a doubtful curve fit. More than one record can exist for a structure, and the calls need not agree.
molecular target: Polyunsaturated fatty acid lipoxygenase ALOX15 (Homo sapiens) (UniProt P16050); experiment: qHTS Assay for Inhibitors of 15-hLO (15-human lipoxygenase); conditions: purified 15hLO-1, xylenol orange hydroperoxide absorbance; activity change, negative = inhibition: at 57.1 µM (top of the series) unless noted; also: nearly all actives have a fitted effect of over 55% in size
Sequence of UniProt P16050 (P16050 whole entry, looked up): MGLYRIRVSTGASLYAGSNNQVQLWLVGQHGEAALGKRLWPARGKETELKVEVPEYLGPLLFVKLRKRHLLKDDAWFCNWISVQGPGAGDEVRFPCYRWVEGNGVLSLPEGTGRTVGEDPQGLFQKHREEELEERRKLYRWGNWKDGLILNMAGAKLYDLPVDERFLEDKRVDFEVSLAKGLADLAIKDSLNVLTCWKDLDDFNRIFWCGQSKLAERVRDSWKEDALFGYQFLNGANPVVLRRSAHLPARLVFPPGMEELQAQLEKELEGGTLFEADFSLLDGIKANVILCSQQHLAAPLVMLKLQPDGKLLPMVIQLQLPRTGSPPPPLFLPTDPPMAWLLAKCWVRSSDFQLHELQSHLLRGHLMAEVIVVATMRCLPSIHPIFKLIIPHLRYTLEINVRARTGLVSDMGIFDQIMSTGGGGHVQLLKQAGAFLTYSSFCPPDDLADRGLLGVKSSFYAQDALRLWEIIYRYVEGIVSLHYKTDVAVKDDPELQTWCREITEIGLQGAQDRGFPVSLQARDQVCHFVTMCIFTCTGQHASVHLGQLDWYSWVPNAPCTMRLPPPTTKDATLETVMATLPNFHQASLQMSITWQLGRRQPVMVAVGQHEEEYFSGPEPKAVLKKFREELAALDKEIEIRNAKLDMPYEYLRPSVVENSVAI
Summary of the method: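 Readout: Fe(III)-xylenol orange absorbance, 573-to-405 nm ratio as reaction progress. Enzyme 40 nM purified human 15hLO-1, substrate 50 uM arachidonic acid, 6 min RT after 15 min compound preincubation; Hepes pH 7.5 buffer with Triton X-100.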
% is scaled to controls: 0 for no effect and ±100 for the full control effect; potency is read from the fitted curve at half-maximal effect; tags tell the direction and shape of the fitted curve.

Q: Which Potency does the source give for COc1ccc(CNc2nc3nc(C)c(Cl)c(C)n3n2)cc1OC here?
A: The Potency was “inactive”.

Q: Which Potency does the source give for Nc1ccc(O)c([N+](=O)[O-])c1 here?
A: The Potency was inconclusive: 39.8 µM [inhibitor, partial curve, poor fit].

Q: How did the activity change, negative = inhibition turn out when CCOC(=O)c1c(O)[nH]c(=O)c(CC)c1C was run?
A: The activity change, negative = inhibition was inactive: -1.17% [at 11.4 µM].

Q: COCCNc1nc(-c2cccc(OC)c2)nc2ccccc12 was tested. Which Potency did it give?
A: The Potency was inconclusive: 39.8 µM [inhibitor, single point].

Q: With Cc1noc(C)c1-c1cc(N(C)Cc2ccco2)ncn1 as the compound, how does the Potency read?
A: The Potency was inconclusive: 25.1 µM [inhibitor, partial curve].

Q: With CS(=O)(=O)N(CCc1ccccc1)CC(=O)N1CCc2ccccc2C1 as the compound, how does the Potency read?
A: Its Potency is inconclusive: 12.6 µM [inhibitor, partial curve].

Q: With COC(=O)c1ccc(-n2nnnc2SCc2ccccc2OC)cc1 as the compound, how does the Potency read?
A: Its Potency is “inactive”.

Q: N#Cc1ccc(C23CC4CC(CC(C4)C2)C3)[nH]c1=O was tested. Which Potency did it give?
A: Its Potency is “inactive”.

Q: For Oc1ccccc1Nc1nc(NCC2CCCO2)c2ccccc2n1 (stereo not given), which Potency is on record?
A: Its Potency is inconclusive: 31.6 µM [inhibitor, single point].

Q: With Cc1ccc2c(c1)c1c3n2CCN[C@H]3CCC1 as the compound, how does the Potency read?
A: Its Potency is “inactive”.

Q: C[C@@H]1CC[C@H]2C(=O)N3[C@@H](CC[C@@H](C)[C@@H]3c3ccc(Br)cc3)C(=O)N2[C@@H]1c1ccc(Br)cc1 was tested. Which Potency did it give?
A: Its Potency is inconclusive: 0.501 µM [inhibitor, single point].

Q: How did the Potency turn out when O=C(CSc1ncn(-c2ccccc2)n1)N1CCc2ccccc21 was run?
A: The Potency was inconclusive: 20 µM [inhibitor, single point].

Q: With COC(=O)c1cc(NCc2ccc3c(c2)OCO3)ccc1N1CCOCC1 as the compound, how does the Potency read?
A: The Potency was inconclusive: 12.6 µM [inhibitor, partial curve].

Q: How did the Potency turn out when COc1ccccc1CNc1ncncc1-c1ccc2c(c1)OCO2 was run?
A: The Potency was inconclusive: 39.8 µM [inhibitor, single point].

Q: Which Potency does the source give for Cc1oc(C(=O)O)cc1CSCc1cc(C(=O)O)c(C)o1 here?
A: Its Potency is inconclusive: 10 µM [inhibitor, partial curve].

Q: NC(N)=N/N=C\c1ccc(O)c(C(=O)O)c1 was tested. Which activity change, negative = inhibition did it give?
A: The activity change, negative = inhibition was inactive: 1.93% [at 11.4 µM].

Q: For CCOc1ccc(N2C(=O)CC(N3CCN(c4ccccc4F)CC3)C2=O)cc1 (stereo not given), which Potency is on record?
A: The Potency was inconclusive: 25.1 µM [inhibitor, single point].

Q: c1cncc(CNc2nc(-c3ccoc3)nc3ccccc23)c1 was tested. Which Potency did it give?
A: The Potency was inconclusive: 20 µM [inhibitor, partial curve].

Q: Which Potency does the source give for COc1cc(C(O)P(=O)(OC(C)C)c2ccc(N(C)C)cc2)cc(OC)c1OC (stereo not given) here?
A: The Potency was inconclusive: 12.6 µM [inhibitor, partial curve].

Q: Which Potency does the source give for O=C(c1ccco1)N1CCN(C(=O)c2snc3ccc(Cl)cc23)CC1 here?
A: Its Potency is inconclusive: 10 µM [inhibitor, partial curve, poor fit].

Q: How did the Potency turn out when O=C(O)CCc1ccc(-c2ccc(Br)cc2)n1Cc1ccco1 was run?
A: Its Potency is active: 15.8 µM.

Q: With C=CC(C1=CC(=O)C=CC1=O)c1ccccc1 (stereo not given) as the compound, how does the Potency read?
A: The Potency was inconclusive: 15.8 µM [inhibitor, partial curve].

Q: For COc1cc(/C=N/NC(=O)c2cc(-c3ccccc3)n[nH]2)ccc1O, which Potency is on record?
A: The Potency was “inactive”.

Q: How did the Potency turn out when Cc1ccc2cc(CN(Cc3ccco3)C(=O)c3cccs3)c(=O)[nH]c2c1 was run?
A: Its Potency is inconclusive: 20 µM [inhibitor, partial curve].

Q: Which Potency does the source give for O=C(/C=C/c1ccc(O)c(O)c1)O[C@@H](C(=O)O)[C@@H](OC(=O)/C=C/c1ccc(O)c(O)c1)C(=O)O here?
A: Its Potency is inconclusive: 39.8 µM [inhibitor, single point].

Q: CN(C(=O)c1cc2nc(-c3ccco3)cc(C(F)(F)F)n2n1)C1CCCCC1 was tested. Which Potency did it give?
A: Its Potency is active: 10 µM.

Q: Which Potency does the source give for Brc1ccccc1C1=Nn2c(nnc2-c2ccccc2)SC1 here?
A: The Potency was inconclusive: 25.1 µM [inhibitor, partial curve].

Q: For O=C(C1CCN(Cc2cc(Cl)ccc2O)CC1)N1CCN(Cc2ccccc2)CC1, which Potency is on record?
A: Its Potency is inconclusive: 12.6 µM [inhibitor, partial curve].

Q: How did the Potency turn out when N#CCCn1c(=O)cnc2cnc(Nc3ccccc3)nc21 was run?
A: The Potency was “inactive”.

Q: How did the Potency turn out when CCOC(=O)NC1(NC2CCCCC2)Oc2ccccc2O1 was run?
A: The Potency was active: 25.1 µM.

Q: Which Potency does the source give for CCOC(=O)Cn1c(CN2CCN(c3cccc(Cl)c3)CC2)nc2c1c(=O)[nH]c(=O)n2C here?
A: The Potency was inconclusive: 20 µM [inhibitor, single point].

Q: How did the activity change, negative = inhibition turn out when COC(=O)C1=C(C)N(Cc2ccccc2)[C@]23O[C@](C(=O)OC)(C(=O)N2C1c1ccccc1)C1C(=O)N(C)C(=O)C13 (stereo not given in full) was run?
A: The activity change, negative = inhibition was inactive: 9.47% [at 11.4 µM] and inactive: -4% [at 11.4 µM].

Q: For CC(C)(C)c1nc(CN2CCOCC2)ccc1O, which Potency is on record?
A: Its Potency is inconclusive: 25.1 µM [inhibitor, single point].

Q: With CN(C)c1ncc2nc(-c3ccccc3)c(=O)n(C3CC3)c2n1 as the compound, how does the Potency read?
A: Its Potency is inconclusive: 31.6 µM [inhibitor, single point].

Q: CC(C)(C(=O)O)c1ccc(C(O)CCCN2CCC(C(O)(c3ccccc3)c3ccccc3)CC2)cc1 (stereo not given) was tested. Which Potency did it give?
A: The Potency was active: 20 µM.

Q: With COc1cc(OC)cc(-c2nc3cc(C)ccc3o2)c1 as the compound, how does the Potency read?
A: The Potency was “inactive”.

Q: How did the Potency turn out when COc1cccc(NC(=O)CCP(C)(=O)O)c1 was run?
A: Its Potency is inconclusive: 39.8 µM [inhibitor, single point].

Q: For Cc1ccc(C2C(C#N)=C(N)Oc3nc(-c4ccccc4)[nH]c32)o1 (stereo not given), which Potency is on record?
A: Its Potency is inconclusive: 31.6 µM [inhibitor, single point].

Q: How did the Potency turn out when CC1=C/C(=C/N(C)c2ccccc2)C(=O)S1 was run?
A: Its Potency is inconclusive: 31.6 µM [inhibitor, single point].

Q: Which Potency does the source give for Cc1cccc2cc(COC(=O)COc3ccccc3)c(=O)[nH]c12 here?
A: Its Potency is “inactive”.

Q: Which Potency does the source give for COc1ccc2c(c1)OC/C(=C\c1ccc(OC)c(O)c1)C2=O here?
A: Its Potency is inconclusive: 25.1 µM [inhibitor, single point].

Q: For Cc1ccc(O)c(N=Nc2ccccc2)n1, which Potency is on record?
A: Its Potency is active: 12.6 µM.

Q: For O=C(NC1CCCC1)c1cnn2c(C(F)(F)F)cc(-c3ccco3)nc12, which Potency is on record?
A: The Potency was inconclusive: 31.6 µM [inhibitor, single point].

Q: Cc1cc(C(=O)O)ccc1-n1c(C)ccc1C was tested. Which Potency did it give?
A: The Potency was inconclusive: 25.1 µM [inhibitor, partial curve].

Q: CC(C)N1CCc2c(sc(NC(=O)c3ccc(S(=O)(=O)N4CCOCC4)cc3)c2C#N)C1 was tested. Which Potency did it give?
A: Its Potency is inconclusive: 25.1 µM [inhibitor, single point].

Q: How did the Potency turn out when CC(=O)C1=C(O)C=C(c2ccco2)CC1c1ccco1 (stereo not given) was run?
A: Its Potency is inconclusive: 31.6 µM [inhibitor, single point].

Q: Which Potency does the source give for CCC(C)Sc1nc2c(c(=O)[nH]c(=O)n2C)n1CCc1ccccc1 (stereo not given) here?
A: The Potency was “inactive”.

Q: Cc1onc(-c2ccccc2Cl)c1C(=O)Nc1sc2c(c1C#N)CCC2 was tested. Which Potency did it give?
A: The Potency was inconclusive: 25.1 µM [inhibitor, single point].

Q: Which Potency does the source give for C=Cc1c(C)c2cc3[nH]c(cc4nc(cc5nc(cc1[nH]2)C(C)=C5CCC(=O)O)C(CCC(=O)O)=C4C)c(C)c3C=C here?
A: The Potency was inconclusive: 15.8 µM [inhibitor, partial curve] and inconclusive: 10 µM [inhibitor, partial curve].

Q: With O=C(CSc1ccc2nnc(-c3ccc(F)cc3)n2n1)NCC1CCCO1 (stereo not given) as the compound, how does the Potency read?
A: The Potency was inconclusive: 39.8 µM [inhibitor, single point].

Q: For COC(=O)CSc1nsc(SCC(=O)OC)c1C#N, which Potency is on record?
A: The Potency was “inactive”.

Q: How did the Potency turn out when C=C[C@](C)(O)CCC1C(=C)CC(O)C2C(C)(C)CCCC12C (stereo not given in full) was run?
A: The Potency was inconclusive: 25.1 µM [inhibitor, single point].

Q: How did the Potency turn out when CCN1C2=C(C(=O)CCC2)C(c2ccc(O)c(Br)c2)C2=C1CCCC2=O was run?
A: The Potency was inconclusive: 25.1 µM [inhibitor, single point].

Q: How did the Potency turn out when CCOC(=O)NCc1ccc(S(=O)(=O)Nc2ccccc2C)cc1 was run?
A: The Potency was inconclusive: 39.8 µM [inhibitor, single point].

Q: How did the Potency turn out when O=C(c1ccccc1)N1CCCCC(Sc2nnc3ccccn23)C1=O (stereo not given) was run?
A: Its Potency is “inactive”.

Q: How did the Potency turn out when COc1ccc(N(CC(=O)Nc2ccc3c(c2)OCO3)S(=O)(=O)c2ccccc2)c(OC)c1 was run?
A: The Potency was inconclusive: 15.8 µM [inhibitor, partial curve].

Q: For C=C(C)CSC1=C(C#N)C(c2ccccc2Cl)CC(=O)N1 (stereo not given), which Potency is on record?
A: The Potency was active: 15.8 µM.

Q: COc1ccc(NS(=O)(=O)c2ccc(NC(C)=O)cc2)cc1OC was tested. Which Potency did it give?
A: Its Potency is inconclusive: 7.94 µM [inhibitor, single point].

Q: With COc1nnc(-c2ccc(C)c(S(=O)(=O)NCCO)c2)c2ccccc12 as the compound, how does the Potency read?
A: Its Potency is “inactive”.

Q: For S=C(c1ccc(N2CCCC2)cc1)N1CCCCC1, which Potency is on record?
A: Its Potency is inconclusive: 39.8 µM [inhibitor, single point].

Q: For COC(=O)c1c(NC(=O)Cc2cccs2)sc2c1CCC(C)C2 (stereo not given), which Potency is on record?
A: Its Potency is inconclusive: 3.98 µM [inhibitor, full curve].

Q: With COc1ccc(OC)c(C2CC(=O)N3CN(c4ccc(C)c(Cl)c4)CSC3=C2C#N)c1 (stereo not given) as the compound, how does the Potency read?
A: The Potency was inconclusive: 15.8 µM [inhibitor, partial curve].

Q: With C=CCn1c(COc2ccccc2F)nnc1SCC(=O)NC(=O)NCc1ccco1 as the compound, how does the Potency read?
A: The Potency was inconclusive: 3.98 µM [inhibitor, single point].

Q: Which Potency does the source give for Cc1ccccc1-n1c(SCc2c(C)noc2C)nnc1-c1ccncc1 here?
A: The Potency was inconclusive: 10 µM [inhibitor, partial curve].

Q: How did the Potency turn out when Cc1cnc(CNc2ncncc2-c2ccccc2C(F)(F)F)cn1 was run?
A: The Potency was inconclusive: 25.1 µM [inhibitor, single point].

Q: With Brc1ccc(-c2nc3ccccc3s2)s1 as the compound, how does the Potency read?
A: The Potency was “inactive”.

Q: How did the Potency turn out when CCOC(=O)c1c(NC(=O)CN2CCOCC2)sc2c1CCCC2 was run?
A: Its Potency is active: 25.1 µM.

Q: With O=c1oc2cc(OCc3nn[nH]n3)ccc2c2c1CCCC2 as the compound, how does the Potency read?
A: Its Potency is “inactive”.

Q: How did the Potency turn out when CC(=O)c1cc(-c2ccccc2)n(CC(=O)NCc2cccs2)c1C was run?
A: Its Potency is “inactive”.

Q: How did the Potency turn out when CN1/C(=C/C(=O)C2CCC2)Sc2ccccc21 was run?
A: Its Potency is inconclusive: 12.6 µM [inhibitor, partial curve].
